Results published in patent US6344453B1, “Insecticidal heterocyclic compounds” (priority 1989, dated 2002).

What follows are molecules tested on Myzus persicae exhibiting resistance to organophosphorus and carbamate-series insecticides (assay: Biotest against Myzus persicae resistant to organophosphorus and carbamate-series insecticides, spray on eggplant seedlings). Details: in Solanum melongena, 24 h, read-out: insect mortality.

How did the mortality at 500 ppm turn out when `CC(C)N1CN(Cc2ccc(Cl)nc2)C(=N[N+](=O)[O-])N(Cc2ccc(Cl)nc2)C1` [Compound 16] was run?
Its mortality at 500 ppm is 100%.

How did the mortality at 500 ppm turn out when `CN1CN/C(=N\[N+](=O)[O-])N(Cc2cnc(Cl)s2)C1` [Compound 12] was run?
Its mortality at 500 ppm is 100%.

How did the mortality at 500 ppm turn out when `N#C/N=C1\COCCN1Cc1cnc(Cl)s1` [Compound 3] was run?
Its mortality at 500 ppm is 100%.

How did the mortality at 500 ppm turn out when `CN1CN/C(=N\[N+](=O)[O-])N(Cc2ccc(Cl)nc2)C1` [Compound 11, 1-(2-chloro-5-pyridylmethyl)-5-methyl-2-nitroimino-hexahydro-1,3,5-triazine] was run?
Its mortality at 500 ppm is 100%.

`CC(C)N1CN/C(=N\[N+](=O)[O-])N(Cc2ccc(Cl)nc2)C1` [Compound 15] was tested. Which mortality at 500 ppm did it give?
Its mortality at 500 ppm is 100%.

For `N#C/N=C1\COCCN1Cc1ccc(Cl)nc1` [Compound 2, 4-(2-chloro-5-pyridylmethyl)-3-cyanoiminomorpholine], which mortality at 500 ppm is on record?
The mortality at 500 ppm was 100%.

How did the mortality at 500 ppm turn out when `CN1CN/C(=N\C#N)N(Cc2ccc(Cl)nc2)C1` [Compound 17, 1-(2-chloro-5-pyridylmethyl)-5-neath-2-cyanoimino-hexahydro-1,3,5-triazine] was run?
Its mortality at 500 ppm is 100%.

Which mortality at 500 ppm does the source give for `CON1CN/C(=N\[N+](=O)[O-])N(Cc2ccc(Cl)nc2)C1` [Compound 14, 1-(2-chloro-5-pyridylmethyl)-5-methoxy-2-nitroimino-hexahydro-1,3,5-triazine] here?
Its mortality at 500 ppm is 100%.

`CC(C)c1noc(C(C)N2CN(C)CN/C2=N\[N+](=O)[O-])n1` (stereo not drawn) [Compound 40] was tested. Which mortality at 500 ppm did it give?
Its mortality at 500 ppm is 100%.
